According to PubChem BioAssay AID463173 (ICCB-Longwood Screening Facility, Harvard Medical School, 2010):
Screen size: about 52,000 compounds; about 1,700 (3.3%) were called active. Rule as the data show it: active = survival mostly below about 52% (no sharp cut-off); inactive = mostly above about 56%. This is one part of the list.

tested on: Wild type; experiment: growth inhibition of S. aureus wild type versus tarO mutant, primary screen, teichoic acid synthesis inhibitors, RN4220, OD600 (AID 463173); conditions: S. aureus RN4220 wild type/DeltatarO growth, OD600, 18 h, stronger effect = lower value, screened at 18.75 µg/mL (by protocol)

SMILES | survival
CCCn1cc(S(=O)(=O)c2ccc(OCC)cc2)c(=O)c2cc(C)ccc21 | inactive: 88%
CCN(CC)c1ccc2c(COC(C)=O)cc(=O)oc2c1 | inactive: 115%
Cc1ccc(CCC(=O)Nc2ccc(C(C)C)cc2)o1 | inactive: 112%
O=C(Cn1ccn(-c2ccc(F)c(F)c2)c(=O)c1=O)NCc1ccccc1 | inactive: 84%
O=C(CCSCc1ccccc1Cl)NCCc1ccccc1 | inactive: 74%
Cc1c(-c2cccc(NC(=O)Cc3ccccc3)c2)nc2ncccn12 | inactive: 73%
Cc1ccc(OCCSc2nc3ccccc3n2CC(=O)N2CCOCC2)cc1C | inactive: 84%
COc1ccc(CNc2nc(-c3ccccc3)nn2C(=O)c2ccccc2OC)cc1 | inactive: 84%
COc1cc(Cl)c(S(=O)(=O)N2CCN(c3c(C)cccc3C)CC2)cc1Cl | inactive: 92%
COCCn1c(C)nnc1SCC1CCCO1 (stereo not given) | inactive: 127%
CN(Cc1ccccc1)C(=O)c1c[nH]c2ccc(S(=O)(=O)Nc3ccccc3F)cc2c1=O | inactive: 84%
CCOC(=O)c1cc2c(=O)n3ccccc3nc2n(CC2CCCO2)c1=NC(=O)c1ccc(OCC)cc1 (stereo not given) | inactive: 81%
CCOc1cc(C(=O)N2CC(=O)Nc3ccc(F)cc3C2c2ccccc2)cc(OCC)c1OCC (stereo not given) | inactive: 75%
Cc1cc(C=C(C#N)C#N)c(C)n1-c1ccc(N2CCOCC2)cc1 | inactive: 122%
CCn1c(=O)c(C(=O)Nc2nccs2)c(O)c2ccccc21 | inactive: 103%
CC(C)OCCCNC(=O)Cn1c(-c2cccs2)cc2cc(F)ccc21 | inactive: 91%
COc1ccc(N2CCN(CCCNC(=O)c3sc4ncccc4c3-n3cccc3)CC2)cc1 | inactive: 78%
COc1cc2nc(NCCc3ccc(Cl)cc3)n3nc(-c4ccccc4)nc3c2cc1OC | inactive: 74%
CCN(C(=O)c1nn(C)c2c1CSc1ccccc1-2)c1cccc(C)c1 | inactive: 106%
COc1ccc(NC(=O)Cn2nc(C)c3c(C)n(-c4ccccc4)nc3c2=O)cc1OC | inactive: 47%
COc1cc(C(=O)OCc2cc(=O)n3ccsc3n2)cc(OC)c1OC | active: -4%
Oc1ccc(NC(=S)Nc2ccc(O)cc2)cc1 | inactive: 106%
CCOc1cc(-c2cc(C(=O)O)c3c(-c4ccccc4)[nH]nc3n2)ccc1O | inactive: 61%

SMILES | survival
COc1ccc(S(=O)(=O)NCC(c2ccco2)S(=O)(=O)c2cccs2)cc1OC (stereo not given) | inactive: 79%
Cc1ccc(NC(=O)N(Cc2c[nH]c3ccccc23)C2CCCCCC2)cc1C | inactive: 54%
O=c1n(Cc2ccc([N+](=O)[O-])cc2)c2ccccc2c2nc(-c3ccccc3)nn12 | inactive: 152%
COc1ccc(CCNC(=O)Cc2c(C)c3ccc(O)c(C)c3oc2=O)cc1OC | inactive: 79%
O=C(OCCN1CCOCC1)c1ccccc1 | inactive: 110%
CCOc1ccc(NC(=O)c2cccc3c(=O)c4c([nH]c23)CCCC4)cc1 | inactive: 79%
Cc1ccc(Cn2cnc3nc4c(cc3c2=O)CCCC4)cc1 | inactive: 55%
Cc1cc(C)cc(-n2c(SCC(=O)Nc3ccccc3F)nc3c(oc4ccccc43)c2=O)c1 | inactive: 82%
Cc1c(NC(=O)Nc2ccccc2C(F)(F)F)c(=O)n(-c2ccccc2)n1C | inactive: 76%
CCOc1ccc(C2=C(C(C)=O)Sc3nnc(C)n3N2C(C)=O)cc1 | inactive: 69%
Cn1c(=O)n(C)c2cc(CNCc3ccc(F)cc3)ccc21 | inactive: 86%
Cc1ccc(C(=O)N2CCc3cc(CNC(=O)c4ccccc4F)ccc32)cc1 | inactive: 73%
COc1ccc(CCNC(=O)CCN2N=C(c3ccccc3)CCC2=O)cc1OC | inactive: 72%
O=C(CS(=O)(=O)c1ccc(Cl)cc1)Nc1nc2ccc(Br)cc2s1 | inactive: 53%
CCc1ccc(NC(=O)C2(c3cccs3)CCOCC2)cc1 | inactive: 73%
Cc1oc2ncn(CC(C)C)c(=O)c2c1C(=O)N1CCN(c2ccccc2F)CC1 | inactive: 63%
Cc1cc(C)c(NC(=O)CN(c2ccccc2)S(=O)(=O)N(C)C)c(C)c1 | inactive: 78%
OC1CCNC(=S)N1c1ccccc1 (stereo not given) | inactive: 97%
O=C(Nc1ccc2oc(-c3ccc4ccccc4c3)nc2c1)c1cccc(Cl)c1Cl | inactive: 78%
CSc1ccc(CCNC(=O)CN2C(=O)COc3ccc(S(=O)(=O)N4CCCC4)cc32)cc1 | inactive: 122%
CCOc1ccc(NC(=O)c2cnn3c2NC(c2ccccc2)=CC3c2cccc(OC)c2OC)cc1 (stereo not given) | inactive: 85%
Clc1ccc(-c2nnn3c2nc(N2CCCCC2)c2ccccc23)cc1 | inactive: 45%
COC(=O)c1sc2cccc(F)c2c1S(=O)(=O)NCc1ccc(F)cc1 | inactive: 101%

SMILES | survival
COc1ccc(C2CC(=O)N(Cc3cccc(C)c3)c3c2c(C)nn3-c2nc(C)cc(C)n2)c(OC)c1 (stereo not given) | inactive: 89%
Cc1ccccc1-n1c(=O)c2ccccc2n(Cc2ccc(F)cc2)c1=O | inactive: 87%
CCOC(=O)c1cnc2c(Cl)c(Cl)ccc2c1Nc1ccc(N(C)C)cc1 | inactive: 80%
O=C(Nc1ccc(F)cc1)c1ncn(-c2ccccc2)n1 | inactive: 81%
Fc1cccc(F)c1CSc1nc2ccccc2[nH]1 | inactive: 112%
COc1ccc(-n2c(=O)c3c4c(sc3n(Cc3c(F)cccc3Cl)c2=O)CN(C(C)=O)CC4)cc1OC | inactive: 73%
CCOC(=O)c1ccccc1NC(=O)CN(c1cc(C(F)(F)F)ccc1Cl)S(C)(=O)=O | inactive: 74%
Cc1ccc(-c2noc(CN(C(=O)c3ccc(C(C)(C)C)cc3)C(C)C)n2)cc1 | active: -1%
COc1ccc(N2CCN(CC(=O)N(C)C)CC2)cc1 | inactive: 96%
O=S(=O)(c1ccccc1)n1nc(-c2ccc(Cl)cc2)nc1NCc1ccc(F)cc1 | inactive: 53%
COc1cccc(NC(=O)Cn2c(=O)c3cccn3c3ccc(F)cc32)c1 | inactive: 77%
O=C(Cn1ccc2cc(S(=O)(=O)N3CCCCCC3)ccc21)NCCc1ccccc1Cl | inactive: 72%
Cc1ccc(CCNC(=O)CCS(=O)(=O)c2ccc3c(c2)oc(=O)n3C)cc1 | inactive: 91%
COc1cccc(N2CCN(S(=O)(=O)c3ccc(-c4cc(C(F)(F)F)on4)s3)CC2)c1 | inactive: 78%
CCCCSCCCNC(=O)c1cn(CC)c2ccc(S(=O)(=O)N(C)C3CCCCC3)cc2c1=O | inactive: 35%
COc1cccc(-c2nc(SCC(=O)NCc3ccccc3)c3c(=O)n(C)c(=O)n(C)c3n2)c1 | inactive: 95%
Cc1noc(NS(=O)(=O)c2ccc(NC(=O)COc3ccccc3Br)cc2)c1C | inactive: 74%
CCOc1ccccc1NC(=O)Nc1ccccc1OCc1cc(=O)n2ccccc2n1 | inactive: 78%
COc1cc(Cl)c(C)cc1NC(=O)Cn1cnc2sc(C)c(S(=O)(=O)N3CCCCC3)c2c1=O | inactive: 136%
CCOC(=O)c1scc(-c2ccc(C)cc2)c1S(=O)(=O)Nc1cc(C)ccc1C | inactive: 72%
Cc1ccc(CCNC(=O)c2ccc(CS(=O)(=O)Cc3ccc(Cl)cc3)o2)cc1 | inactive: 72%
CN(CC(=O)NCc1ccc(Cl)cc1)S(=O)(=O)c1ccc2c(c1)c(=O)n(C)c(=O)n2C | inactive: 81%
CCOc1ccccc1NC(=O)Cn1c(=O)n(-c2ccc(C)c(C)c2)c(=O)c2c(C)c(C(=O)N(C)C)sc21 | inactive: 124%

SMILES | survival
CCS(=O)(=O)c1c(S(=O)(=O)CC)c2cc(C(C)(C)C)ccn2c1C(=O)c1ccc(F)cc1 | inactive: 85%
Cc1cc2c(cc1C)NC(CC(=O)Nc1cccc(C)c1C)C(=O)N2 (stereo not given) | inactive: 90%
Cc1nc2ccccc2c2nc(N)nn12 | inactive: 113%
O=C(NCc1ccc(Cl)cc1)C(=O)NCC(c1cccnc1)N1CCN(c2ccccc2)CC1 (stereo not given) | inactive: 77%
CC(Nc1ncnc2c1cnn2-c1cccc(Cl)c1)c1ccccc1 (stereo not given) | inactive: 130%
COc1cccc(-c2nnc(SCC(=O)N3CCc4ccccc43)o2)c1 | inactive: 69%
CC(OC(=O)c1cccs1)C(=O)NCC1CCCO1 (stereo not given) | inactive: 105%
CCN(c1ccc(C)cc1C)S(=O)(=O)c1nnc(NC(=O)c2ccc(F)cc2)s1 | inactive: 20%
COc1ccc(CCN(Cc2cc3cc(C)ccc3n3nnnc23)C(=O)N(C)C)cc1OC | inactive: 103%
CCN(Cc1ccccc1)C(=O)CN1C(=O)COc2ccc(S(=O)(=O)N3CCOCC3)cc21 | inactive: 96%
COc1cccc(-c2cc(C(=O)Nc3ccc(OC)cc3OC)no2)c1 | inactive: 85%
Cc1ccc2oc(=O)c(-c3nc(-c4cccs4)no3)cc2c1 | inactive: 94%
COc1ccc(-n2cnc3cc(C(=O)NCCC4=CCCCC4)ccc32)cc1 | inactive: 83%
COC(=O)c1ccccc1NC(=O)Cc1nc(-c2ccc(OC)cc2)no1 | inactive: 110%
Cc1nn(CCC(=O)Nc2cccc(C#N)c2)c(C)c1S(=O)(=O)N1CCC(C)CC1 | inactive: 69%
CCOCCCNC(=O)CCC(=O)NNc1nc2ccccc2c2nc(C)nn12 | inactive: 80%
Cc1nc2nc(SCC(=O)NCCc3ccc(Cl)cc3)nn2c(C)c1Cc1c(F)cccc1Cl | active: -2%
Cc1ccc(NC(=O)C2CCCN2S(=O)(=O)c2ccc3c(c2)n(C)c(=O)c(=O)n3C)cc1 (stereo not given) | inactive: 84%
O=C(Nc1cccc(C(=O)OCc2cc(=O)n3ccsc3n2)c1)c1ccc(F)cc1 | inactive: 123%
COc1ccc(OC)c(NC(=O)CN(c2ccccc2OC)S(=O)(=O)c2ccc(C)cc2)c1 | inactive: 82%
Cc1csc2nc(COC(=O)c3ccc(NC(=O)c4ccccc4Br)cc3)cc(=O)n12 | inactive: 124%
